# ± gives the standard deviation of the averaged measurements. Whole data set: some 33,000 sequences, median “E-score (dimensionless, -0.5 to 0.5)” near -0.049, cut for the highest 2% near 0.37. The list shows a part of the results.
# System: T1, PmTbr T-box DNA-binding domain (GST fusion)
# T1 sequence: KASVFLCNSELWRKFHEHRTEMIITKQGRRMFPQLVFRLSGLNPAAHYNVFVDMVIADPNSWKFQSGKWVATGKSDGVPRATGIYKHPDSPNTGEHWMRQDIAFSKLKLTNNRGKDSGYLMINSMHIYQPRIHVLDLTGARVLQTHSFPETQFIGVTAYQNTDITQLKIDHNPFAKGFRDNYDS
# Assay: PBM E-score of 8-mer (E-score (dimensionless, -0.5 to 0.5)); Tbr is Tbrain of the sea star Patiria miniata (Pm) or the sea urchin Strongylocentrotus purpuratus (Sp); higher = stronger binding preference; most listed sequences are background and not binding sites
# Settings: the construct has about 5 more residues each side
# In short: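 Each ungapped 8-mer received an enrichment E-score from the Universal PBM Analysis Suite, averaged over duplicate arrays. The proteins were Tbr T-box DNA-binding domains, covering the whole T-box plus about five flanking residues, fused to GST and expressed in BL21 E. coli at 20 °C before glutathione affinity purification. Universal Agilent oligonucleotide arrays were made double-stranded by primer extension and incubated with 200 nM protein in PBS (pH 7.5). The arrays were then scanned and quantified, and every 8-mer was scored from probe intensities.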
row,Sequence,PBM E-score of 8-mer
1,ACAGGTAT,0.104 ± 0.021
2,AGAAGATG,-0.167 ± 0.034
3,CCATGTTC,-0.0843 ± 0.03
4,AGATCCGG,-0.12 ± 0.016
5,AAAAGAAT,-0.0614 ± 0.05
6,GACGCGAA,0.126 ± 0.066
7,ACGCACGT,0.103 ± 0.026
8,ACGATAGA,-0.228 ± 0.007
9,TCTAAAAA,-0.144 ± 0.029
10,ACCTTTTC,0.0667 ± 0.087
11,CTGCAGTA,0.0389 ± 0.03
12,GTTTGACA,0.3158 ± 0.0021
13,CCCGCCGC,-0.00498 ± 0.011
14,TGAAAGAA,-0.0648 ± 0.036
15,CGGGTAGA,-0.156 ± 0.035
16,AAGGGGAG,-0.162 ± 0.035
17,CATCACCA,0.164 ± 0.015
18,CCTCCACG,-0.0474 ± 0.043
19,ATTTGCGA,0.193 ± 0.022
20,ACCTCATG,0.155 ± 0.026
21,GCCGCAGC,-0.0955 ± 0.022
22,GGAGAATA,-0.192 ± 0.067
23,GTTTTAAA,-0.0173 ± 0.1
24,GCGGGTGA,0.277 ± 0.043
25,CAGAAGCG,0.103 ± 0.04

row,Sequence,PBM E-score of 8-mer
1,CGTGCGGC,-0.0454 ± 0.0043
2,ACCGTAGC,-0.167 ± 0.027
3,GTGTCCAA,0.141 ± 0.0086
4,GTAATTAC,-0.0135 ± 0.077
5,TAGTTGCA,-0.187 ± 0.033
6,GATATTTA,-0.0613 ± 0.0032
7,CGTCAACC,0.112 ± 0.052
8,CAGGGAGG,-0.105 ± 0.026
9,CCACGACA,0.186 ± 0.055
10,CTGTTATC,0.128 ± 0.019
11,ACGCTGGA,0.0314 ± 0.029
12,CCACTACG,-0.143 ± 0.032
13,GGTGGGCA,0.0512 ± 0.038
14,AAACGTCA,-0.0875 ± 0.0045
15,ATTCGGTC,-0.1093 ± 0.00075
16,GAGACAGA,-0.192 ± 0.02
17,CAACGCGA,0.152 ± 0.07
18,ACGGACGC,0.0949 ± 0.049
19,ACCGCGCA,-0.043 ± 0.043
20,GAACGAGA,-0.0969 ± 0.039
21,GTTGGCCA,-0.0304 ± 0.0051
22,TATGTAAA,-0.189 ± 0.015
23,ATCATCAG,-0.0627 ± 0.032
24,CCGGCGCG,0.143 ± 0.048
25,CCGCTTCG,0.0891 ± 0.019

row,Sequence,PBM E-score of 8-mer
1,CGGTTGGA,0.057 ± 0.023
2,AACAAGCA,-0.0887 ± 0.015
3,AGTATCAA,-0.0174 ± 0.082
4,ATTGCAGG,-0.231 ± 0.069
5,TTTACAAA,-0.0854 ± 0.12
6,ATTGAAAT,-0.248 ± 0.013
7,AGATGGTG,0.176 ± 0.0046
8,TACACATA,0.115 ± 0.032
9,AGGTAGCG,0.22 ± 0.027
10,AGGGCTGA,-0.187 ± 0.028
11,ACTGAACA,0.0291 ± 0.013
12,GAGGATAA,-0.0813 ± 0.021
13,AGCAAGAG,-0.138 ± 0.03
14,GCATATGC,0.0124 ± 0.068
15,ACGCCGGC,0.2643 ± 0.0011
16,AAGTAAAT,-0.0707 ± 0.066
17,CTGCTTTC,-0.0616 ± 0.037
18,ATGGACAC,0.0441 ± 0.018
19,AGGGCCGA,-0.162 ± 0.019
20,CGGTAGCA,0.26 ± 0.0077
21,ACGCGGCA,0.129 ± 0.054
22,CAGGATGC,-0.0559 ± 0.0028
23,GAAAAGAA,-0.0545 ± 0.075
24,AAGCATGC,-0.174 ± 0.031
25,AGCTGTGC,0.182 ± 0.0098

row,Sequence,PBM E-score of 8-mer
1,GGCACACC,0.298 ± 0.06
2,CGACTAAG,-0.0926 ± 0.072
3,ATTTTCCC,-0.0127 ± 0.032
4,GTATTTAA,-0.118 ± 0.089
5,TCTACGAA,-0.117 ± 0.11
6,TCTGCAGA,-0.3409 ± 0.0011
7,AGATCTAG,0.041 ± 0.014
8,ATTTGATA,0.0722 ± 0.095
9,AGCATACT,-0.0101 ± 0.03
10,CCATACTA,-0.195 ± 0.026
11,CTCGTACC,-0.0975 ± 0.072
12,GCCTCGAC,-0.0484 ± 0.09
13,ACGTAAGG,-0.102 ± 0.011
14,AGTGGGAG,-0.0233 ± 0.036
15,AGTGTCGC,0.415 ± 0.019
16,ATAGATAT,-0.133 ± 0.073
17,ACAACCTG,0.139 ± 0.026
18,ATACACCA,-0.00568 ± 0.095
19,CTACCGAC,0.0165 ± 0.027
20,GCCCAGCC,-0.121 ± 0.062
21,AAAACGGT,0.0277 ± 0.031
22,ATTTTGAC,0.216 ± 0.05
23,ACTGATCC,-0.262 ± 0.077
24,AACCACCC,-0.132 ± 0.045
25,GACTATAA,-0.0765 ± 0.058

row,Sequence,PBM E-score of 8-mer
1,AATCACAG,0.0723 ± 0.038
2,CAATTACG,-0.0788 ± 0.0072
3,CTGAAACC,-0.0317 ± 0.0024
4,AAACAAAT,0.0475 ± 0.046
5,GCAAAACC,0.0336 ± 0.0076
6,CCCTAGAA,-0.22 ± 0.029
7,CAGAACGG,-0.0839 ± 0.018
8,ACACGTAT,0.2939 ± 0.0019
9,CGTCCCGA,-0.201 ± 0.056
10,AAGTACCT,-0.33 ± 0.006
11,CGAAATTC,0.0215 ± 0.011
12,ACGATCAC,0.0556 ± 0.071
13,ATGCTGGC,-0.051 ± 0.074
14,CGGAAATA,-0.08127 ± 1.4e-05
15,AACTGCTT,0.011 ± 0.058
16,AATAGCCC,-0.1898 ± 0.001
17,ATTGGTTA,-0.113 ± 0.039
18,ACGCCGCG,0.0658 ± 0.049
19,TACGCGGA,-0.235 ± 0.0042
20,AGAATGTA,-0.181 ± 0.013
21,CCCGAACA,-0.172 ± 0.03
22,GGTTGCAA,0.172 ± 0.0051
23,CCTTCAGC,-0.0895 ± 0.022
24,CCGCGGAG,-0.00122 ± 0.011
25,CAGACATA,0.111 ± 0.023

row,Sequence,PBM E-score of 8-mer
1,AAACGGCA,0.0707 ± 0.068
2,ACTAGCGA,0.103 ± 0.036
3,ATACATCA,-0.0384 ± 0.026
4,GTCTTCAA,-0.0747 ± 0.03
5,GGGCTCAA,-0.182 ± 0.072
6,CAGAGGTA,-0.318 ± 0.012
7,GGATCCAC,-0.0343 ± 0.033
8,GATGCCGC,-0.0448 ± 0.13
9,CTAACACC,0.4751 ± 0.004
10,CGAGCTCG,-0.121 ± 0.09
11,GGCGTAGA,-0.0472 ± 0.11
12,AATTCGCA,0.339 ± 0.032
13,GATCACGA,-0.0688 ± 0.047
14,CGCGTAGC,0.101 ± 0.0029
15,CCCTACGG,-0.107 ± 0.04
16,GACACTAC,0.288 ± 0.031
17,ATACTCGC,0.118 ± 0.008
18,CTAGAATA,0.00046 ± 0.034
19,GAGCACTA,-0.0401 ± 0.011
20,ATCGCAAA,0.11 ± 0.085
21,GCTAATCA,0.054 ± 0.0042
22,AAGATGGA,-0.228 ± 0.058
23,AGCGTTGG,0.112 ± 0.048
24,GCTGCCCA,-0.0746 ± 0.1
25,TATTGCCA,-0.026 ± 0.033

row,Sequence,PBM E-score of 8-mer
1,GCGCTGGA,-0.0335 ± 0.037
2,ATTCGCTC,-0.0943 ± 0.028
3,CGAAGTCA,0.00257 ± 0.055
4,GATGTTCC,-0.155 ± 0.013
5,ACAGCTCC,0.194 ± 0.055
6,TACAATCA,-0.16 ± 0.02
7,AAATGTAG,-0.144 ± 0.071
8,ATTCGTAC,-0.051 ± 0.066
9,AAGAGATA,0.0142 ± 0.029
10,GATCGACA,0.275 ± 0.023
11,AATCTTGT,-0.00217 ± 0.087
12,GTCGCAGA,-0.0531 ± 0.0046
13,ACCCTCCC,0.0189 ± 0.0043
14,CCATTTGA,-0.252 ± 0.017
15,CGTGCTAA,0.378 ± 0.021
16,TCTTCGCA,0.286 ± 0.051
17,CTTCAGTC,-0.0457 ± 0.017
18,AACGAAGG,-0.219 ± 0.07
19,TACTCCAA,0.0525 ± 0.027
20,ACGTCAAC,0.0351 ± 0.053
21,GATCAGGC,-0.1781 ± 0.00018
22,ATTGAGTG,0.161 ± 0.078

# — the supplement of paper PMC4166925
